Measured values reported in PubChem BioAssay AID686978 (National Center for Advancing Translational Sciences (NCATS), 2013).
Several values for one entry are separate records, joined by “and”; a condition that tells them apart may be missing. Equal values may be shown once. The campaign covered roughly 420,000 compounds. About 64,000 (15%) were called active. This list was built around the results that the source calls inconclusive (neither active nor inactive); the mix of calls is not that of the screen. The call rests on the fitted dose curve; in most records, active means well fitted inhibition curve with a large enough effect; inconclusive means small, poorly fitted or top-dose-only effect; inactive means flat fitted curve, though single readings scatter. Potencies beside an inconclusive call are fits to weak or partial responses and may not hold up.

experiment: qHTS for Inhibitors of human tyrosyl-DNA phosphodiesterase 1 (TDP1): qHTS in cells in absence of CPT; conditions: DT40 Tdp1-/- hTDP1 cells, no CPT, ATP luminescence, 48 h; series mostly up to 46.2 µM; further: nearly all actives have a fitted effect of over 55% in size
Method in brief: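 DT40 Tdp1-/-;hTDP1 cells, no CPT (DMSO vehicle only), 400 cells/well; compounds pin-transferred; ≥48 hr, 37 °C; CellTiter-Glo 30 min RT dark, luminescence read.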
Potency means the concentration at half of the fitted maximal effect; tags describe the fitted curve by direction and shape.

Question: With `O=Cc1ccc(CS)cc1` as the molecule, how does the Potency read?
Answer: inactive

Question: With `O=C(c1ccc(NS(=O)(=O)c2cccs2)cc1)N1CCOCC1` as the molecule, how does the Potency read?
Answer: inactive

Question: With `CCOc1ccc(NC(=O)Cn2c(=O)n(Cc3ccccc3)c(=O)c3c4c(sc32)CN(C(C)=O)CC4)cc1` as the molecule, how does the Potency read?
Answer: inconclusive: 29.1 µM [inhibitor, single point]

Question: For `CCOc1ccccc1NC(=O)c1nn(-c2ccc(OC)cc2)c(=O)c2c1c1ccccc1n2C`, which Potency is on record?
Answer: inactive

Question: Which Potency does the source give for `CC1=CC(C)(C)n2c(O)c(N=NC(N)=S)c3cc(C)cc1c32` here?
Answer: inactive

Question: For `Cc1cc2cc(CCNS(=O)(=O)c3ccc(F)cc3)c(=O)[nH]c2cc1C`, which Potency is on record?
Answer: inconclusive: 20.6 µM [inhibitor, partial curve]

Question: For `CCCC(=O)Nc1ccc2c(c1)nc(CN1CCN(C(=O)OCC)CC1)n2C`, which Potency is on record?
Answer: inactive

Question: With `O=C1CN(C(=O)c2ccco2)C(c2ccccc2)c2cc(Cl)ccc2N1` (stereo unspecified) as the molecule, how does the Potency read?
Answer: active: 16.4 µM

Question: For `Cc1cc(C)c(CNC(=O)c2cc(C3CC3)nc3c2cnn3C(C)C)c(=O)[nH]1`, which Potency is on record?
Answer: inconclusive: 29.1 µM [inhibitor, single point]

Question: Which Potency does the source give for `O=C(c1ccco1)N1CCN(c2ncnc3c(-c4ccccc4)nsc23)CC1` here?
Answer: active: 20.6 µM

Question: With `COc1ccc(CCN2C(=O)CS/C2=N\NC(=O)c2cccs2)cc1OC` as the molecule, how does the Potency read?
Answer: inconclusive: 29.1 µM [inhibitor, single point]

Question: Which Potency does the source give for `Cc1ccccc1NCC(=O)c1ccc(Br)cc1` here?
Answer: inconclusive: 16.4 µM [inhibitor, partial curve, poor fit]

Question: For `Cc1nc2nc(C)c(CCC(=O)N3CCN(c4ccccn4)CC3)c(C)n2n1`, which Potency is on record?
Answer: inactive

Question: For `O=C(CNC(=O)c1ccccc1)N/N=C/c1ccc([N+](=O)[O-])s1`, which Potency is on record?
Answer: inconclusive: 29.1 µM [inhibitor, single point]

Question: Which Potency does the source give for `COc1ccc(N2CC(NC(=O)C3CCCC3)CC2=O)cc1` (stereo unspecified) here?
Answer: inactive

Question: Which Potency does the source give for `COC(=O)Nc1ccc(S(=O)(=O)N2CCC(C)CC2)cc1` here?
Answer: inactive

Question: With `Cc1ccc2c(=O)[nH]c(Cc3ccccc3C(=O)O)nc2c1` as the molecule, how does the Potency read?
Answer: active: 18.4 µM

Question: With `COc1ccccc1NC(=O)C1=C(C)Nc2ncnn2C1c1sccc1C` (stereo unspecified) as the molecule, how does the Potency read?
Answer: inactive

Question: For `CC(=O)c1cc(CC(=O)N2CCc3c([nH]c4ccccc34)C2c2ccccn2)cs1` (stereo unspecified), which Potency is on record?
Answer: inconclusive: 14.6 µM [inhibitor, partial curve]

Question: Which Potency does the source give for `Clc1ccc(N2CCN(c3cnc4ccccc4n3)CC2)cc1` here?
Answer: inconclusive: 29.1 µM [inhibitor, single point]

Question: With `CCC(CC)c1nn2c(N)c(/C=C3\C(C)=Nc4ccccc43)c(=O)nc2s1` as the molecule, how does the Potency read?
Answer: inconclusive: 16.4 µM [inhibitor, single point]

Question: Which Potency does the source give for `O=C(C1CCN(C2CCN(Cc3ccc4c(c3)CCO4)CC2)CC1)N1CCCC1` here?
Answer: inactive

Question: With `Cc1ccccc1CNC(=O)Cn1cc2c(n1)-c1c(oc(C(=O)N3CCCC3)c1C)CC2` as the molecule, how does the Potency read?
Answer: inconclusive: 14.6 µM [inhibitor, partial curve]

Question: Which Potency does the source give for `C[C@H](NC(=O)c1ccco1)C(=O)Nc1ccc(C#N)cc1` here?
Answer: inconclusive: 18.4 µM [inhibitor, single point]

Question: Which Potency does the source give for `C/C(=N\NC(=O)Cn1cnc2ccccc21)c1cccs1` here?
Answer: inactive

Question: Which Potency does the source give for `C/C=C/c1ccc2c(c1)O[C@@H](CN(C)C(=O)c1ccc(F)cc1)[C@@H](C)CN([C@H](C)CO)S2(=O)=O` here?
Answer: inconclusive: 25.9 µM [inhibitor, single point]

Question: With `Cc1cccc(C(=O)Nc2sc3c(c2C(=O)O)CCCC3)c1` as the molecule, how does the Potency read?
Answer: inconclusive: 23.1 µM [inhibitor, single point] and inconclusive: 23.1 µM [inhibitor, partial curve]

Question: Which Potency does the source give for `Cc1ccc(NC(=S)N(CCN(C)C)Cc2cc3cc(C)ccc3[nH]c2=O)cc1` here?
Answer: inconclusive: 16.4 µM [inhibitor, partial curve]

Question: For `OC(COc1ccc(F)cc1Cl)CN1CCc2ccccc2C1` (stereo unspecified), which Potency is on record?
Answer: inconclusive: 29.1 µM [inhibitor, single point]

Question: For `CC(C)NC(=O)c1onc(CSc2cccc(F)c2)c1C(=O)O`, which Potency is on record?
Answer: inactive

Question: Which Potency does the source give for `CC1CC(C)CN(C(=O)c2cn(C)c3ccc(S(=O)(=O)N(C)C)cc3c2=O)C1` (stereo unspecified) here?
Answer: inactive

Question: Which Potency does the source give for `COc1ccc(N(CC(=O)N2CCN(c3ccc(F)cc3)CC2)S(=O)(=O)c2c(C)nn(C)c2C)cc1` here?
Answer: active: 23.1 µM

Question: With `Cc1ccccc1NC(=S)NCCSc1ccc(Cl)cc1` as the molecule, how does the Potency read?
Answer: active: 18.4 µM

Question: For `O=C(CS(=O)(=O)c1cn(Cc2ccc(Cl)cc2)c2ccccc12)N1CCCCC1`, which Potency is on record?
Answer: inconclusive: 29.1 µM [inhibitor, single point]

Question: With `COc1cc(NC(=O)CN2CCN(C(=O)c3ccco3)CC2)c(C)cc1[N+](=O)[O-]` as the molecule, how does the Potency read?
Answer: inconclusive: 18.4 µM [inhibitor, single point]

Question: Which Potency does the source give for `CCOc1cc(/C=C2\SC(=O)N=C2N)ccc1O` here?
Answer: inconclusive: 13 µM [inhibitor, partial curve, poor fit]

Question: For `CCOC(=O)c1c(-c2ccc(N(C)C)cc2)oc2c1C(OC)CC2` (stereo unspecified), which Potency is on record?
Answer: inconclusive: 18.4 µM [inhibitor, single point]

Question: For `Cc1ccc2c(c1)C/C(=C/c1ccc(N(C)C)cc1)C2=O`, which Potency is on record?
Answer: inconclusive: 35.5 µM [inhibitor, single point]

Question: Which Potency does the source give for `COc1cc(C)nc(OCCNS(=O)(=O)c2cc(C)ccc2C)n1` here?
Answer: inconclusive: 16.4 µM [inhibitor, single point]

Question: With `COc1ccc(C)cc1NC(=O)CSc1nc2ccccc2nc1N1CC(C)OC(C)C1` (stereo unspecified) as the molecule, how does the Potency read?
Answer: active: 25.9 µM

Question: For `CCC(=O)N1CCC(C)(C(=O)Nc2cc(OC)c(OC)c(OC)c2)C1` (stereo unspecified), which Potency is on record?
Answer: inactive

Question: Which Potency does the source give for `Cc1ccc(S(=O)(=O)C(C#N)c2nc3ccccc3nc2N2CC(C)OC(C)C2)cc1C` (stereo unspecified) here?
Answer: active: 14.6 µM

Question: Which Potency does the source give for `O=C(Nc1ccc2c(c1)OCCO2)C(c1ccccc1)n1c(=O)c(-c2cc3ccccc3[nH]2)nc2ccccc21` (stereo unspecified) here?
Answer: inconclusive: 29.1 µM [inhibitor, single point]

Question: For `O=C(NCCCNC(=O)c1ccco1)c1ccc(F)cc1`, which Potency is on record?
Answer: inactive

Question: Which Potency does the source give for `Clc1ccccc1CN(Cc1ccccc1)c1ncnc2nc[nH]c12` here?
Answer: inactive

Question: With `COc1ccc(CNC(=O)c2ccc(-c3c(C)noc3C)c3ccoc23)cc1OC` as the molecule, how does the Potency read?
Answer: inconclusive: 18.4 µM [inhibitor, single point]
